Laboratory results reported in PubChem BioAssay AID1508624 (National Center for Advancing Translational Sciences (NCATS), 2021).
Screen size: about 48,000 compounds; about 120 (0.25%) were called active. Roughly 4% stayed inconclusive and do not appear here. Calls follow the shape of the dose curve; as a rule, active = well fitted activation curve with a large enough effect; inconclusive = small, poorly fitted or top-dose-only effect, or another doubt; inactive = no such curve, though single readings can be large or run the other way. The list shows a part of the results, in another mix than the full data. The source gives no active or inactive call for entries shown without one.

Assay: Primary qHTS for Identification of Small Molecule Activators of Huntingtin-Antisense Promoter Activity; also: nearly all actives have a fitted effect of over 55% in size
Settings: HEK293 HTT-AS promoter firefly luciferase reporter, 24 h; activity change, positive = activation: at 57.5 µM (top of the series), percent change from vehicle, -100% = no light
Outline: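 Firefly luciferase readout (Dual-Glo, 10 min RT) after 24 h, 37 °C compound exposure (final up to 57.5 uM) of HEK293 reporter cells cultured 24 h beforehand; PTC124 at 50 uM final as control inhibitor; activity scaled vehicle 0%, zero RLU -100%.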
Potency is read from the fitted curve at half-maximal effect.

SMILES | activity change, positive = activation | Potency
COc1ccc(C2C(=O)N(C3CCCCCC3)CC(=O)N2Cc2ccc(C)cc2)cc1 (stereo not drawn) | -17.8% | –
O=C1C(c2ccc(F)cc2)N(CCc2ccc(Cl)cc2)C(=O)CN1C1CCCCCC1 (stereo not drawn) | -37.9% | –
CC[C@@H](CO)NCCN[C@@H](CC)CO | inactive: -0.0438% | –
COc1cc(C2CC(=O)Nc3c2c(C)nn3-c2nncc(-c3ccc(C)cc3)n2)cc(OC)c1OC (stereo not drawn) | 6.51% | –
CCc1ccc(NC(=O)CC2C(=O)N(c3cccc(OC)c3)C(=O)N2C2CCCC2)cc1 (stereo not drawn) | -26.1% | –
COc1ccccc1N1CCN(C(=O)C2CCN(S(=O)(=O)Cc3ccccc3)CC2)CC1 | -6.36% | –
COc1ccccc1N1CCN(C(=O)c2cn(CC(C)C)c(=O)c3c2c2ccccc2n3C)CC1 | inactive: -29.9% | –
CCCOc1ccc(NC(=O)CC2C(=O)N(c3cccc(OC)c3)C(=O)N2Cc2cccs2)cc1 (stereo not drawn) | -12.7% | –
Cc1ccc2nc(N3CCN(c4ccccc4)CC3)c3nnnn3c2c1 | 7.37% | –
Cc1nn(Cc2ccc(Cl)c(Cl)c2)c(C)c1NC(=O)c1noc2c1CCc1ccccc1-2 | -38.8% | –
CC(=O)c1ccc(S(=O)(=O)Nc2ccc(-c3ccc(N4CCCCCC4)nn3)cc2)cc1 | -0.765% | –
CCOC(=O)c1ccc(NS(=O)(=O)c2ccc(-c3cc(C)no3)cc2)cc1 | -22.2% | –
Cc1c(NC(=O)Nc2ccc(Br)cc2F)sc2nc3n(c(=O)c12)CCC(C)CC3 (stereo not drawn) | 3.29% | –
CCCCc1nn2c(=O)cc(COC(=O)c3cccc(NC(=O)CCc4ccccc4)c3)nc2s1 | – | active: 251 nM
Cc1ccc(CN2CCN(C3CCN(C(=O)c4ccccc4)CC3)C(=O)C2=O)cc1 | -2.57% | –
Cc1nc(-c2ccc(Cl)cc2)sc1CCNC(=O)Cc1ccc(F)cc1 | inactive: -38.2% | –
CCN(CC)CCCNC(=O)CSc1c2c(nc3cc(Cl)ccc13)CCCC2 | inactive: -66.7% | –
CCc1ccccc1NC(=O)Nc1ccc2c(c1)N(CC)C(=O)c1ccccc1S2 | inactive: -44.1% | –
CCOc1ccc(CCNC(=O)CN2CCN(Cc3ccc(Cl)cc3)C2=O)cc1OCC | inactive: -27.2% | –

SMILES | activity change, positive = activation | Potency
COc1ccc(NC(=O)CC2C(=O)N(c3cccc(C)c3)C(=O)N2Cc2cccnc2)cc1 (stereo not drawn) | 8.2% | –
Cc1nc2cccnc2n1C1CCN(S(=O)(=O)N(C)C)CC1 | 0.892% | –
Cc1ccccc1CNC(=O)C1CCN(S(=O)(=O)Cc2ccccc2)CC1 | -2.62% | –
Cc1cc(NC(=O)c2cc(-c3cccc(Cl)c3)on2)nn1Cc1ccc(Cl)cc1 | inactive: -41% | –
COC(=O)CN1C(=O)CSc2ccc(S(=O)(=O)Nc3cccc(Br)c3)cc21 | -20% | –
CCc1ccc(NC(=O)CC2C(=O)N(c3cccc(C)c3)C(=O)N2CCC(C)C)cc1 (stereo not drawn) | -31.1% | –
CC(C)OC(=O)C(C(=O)C(F)(F)F)c1cc(NS(=O)(=O)c2ccc3c4c(cccc24)C(=O)N3)ccc1O (stereo not drawn) | -27.6% | –
Cc1cc(C)cc(OCCSc2nc(-c3ccc(C(C)(C)C)cc3)nc3cc(=O)[nH]n23)c1 | -16.3% | –
N#CC1=C2SCN(C3CCCCC3)CN2C(=O)CC1c1ccc(F)cc1 (stereo not drawn) | inactive: -9.7% | –
CC(=O)N1c2c(cc(Br)cc2S(=O)(=O)Nc2ccccc2C)CC1C (stereo not drawn) | inactive: -25.5% | –
O=C(Nc1cccc(C(F)(F)F)c1)c1ccc(F)c(S(=O)(=O)N2CCc3ccccc3C2)c1 | inactive: -39.8% | –
CC1CCc2c(sc(NC(=O)c3cc(-c4ccc(Br)cc4)on3)c2C(N)=O)C1 (stereo not drawn) | 6.29% | –
CCCCOc1ccc(CN2C(=O)C(=O)c3cc(C)ccc32)cc1OC | inactive: -2.33% | –
COc1ccc(Cl)cc1NC(=O)COc1cccc2c(=O)n(C)ccc12 | inactive: -6.52% | –
COc1cc(NC(=O)c2noc3c2CC(C(C)(C)C)CC3)cc(OC)c1OC (stereo not drawn) | 5.89% | –
Cc1nn(-c2ccc(N3CCCC3)nn2)c(C)c1CCC(=O)N1CCN(c2ccc(F)cc2)CC1 | -9.94% | –
COc1ccc(Cl)cc1NC(=O)c1noc2c1CCc1ccccc1-2 | 6.71% | –
CCOc1ccc2nc(Cl)c(C3CC(c4ccccc4)=NN3C(=O)CCC(=O)O)cc2c1 (stereo not drawn) | 11.8% | –
CCc1cc(=O)oc2c(C)c(OCC(=O)Nc3ccc(S(=O)(=O)N(CC)CC)cc3)ccc12 | -12.6% | –
